Results: PubChem BioAssay AID488969 (Vanderbilt High Throughput Screening Facility, 2010)
In all, about 110,000 compounds were measured (“z-score”: median about -0.1, highest 2% from about 2 on). The list shows a part of the results.

Biological target: Metabotropic glutamate receptor 8 (Rattus norvegicus) (UniProt P70579)
Test: mGluR8 Gi/Go-coupled signaling modulation – cell-based, rat, thallium flux, HTS, primary screen (AID 488969)
Settings: HEK293 rat mGluR8, GIRK (G protein-gated inwardly rectifying potassium channel) thallium flux, FluoZin2; at 10 µM; stronger effect = higher value; submaximal glutamate (EC20) added with thallium

Chain of UniProt P70579 (P70579 whole entry, looked up): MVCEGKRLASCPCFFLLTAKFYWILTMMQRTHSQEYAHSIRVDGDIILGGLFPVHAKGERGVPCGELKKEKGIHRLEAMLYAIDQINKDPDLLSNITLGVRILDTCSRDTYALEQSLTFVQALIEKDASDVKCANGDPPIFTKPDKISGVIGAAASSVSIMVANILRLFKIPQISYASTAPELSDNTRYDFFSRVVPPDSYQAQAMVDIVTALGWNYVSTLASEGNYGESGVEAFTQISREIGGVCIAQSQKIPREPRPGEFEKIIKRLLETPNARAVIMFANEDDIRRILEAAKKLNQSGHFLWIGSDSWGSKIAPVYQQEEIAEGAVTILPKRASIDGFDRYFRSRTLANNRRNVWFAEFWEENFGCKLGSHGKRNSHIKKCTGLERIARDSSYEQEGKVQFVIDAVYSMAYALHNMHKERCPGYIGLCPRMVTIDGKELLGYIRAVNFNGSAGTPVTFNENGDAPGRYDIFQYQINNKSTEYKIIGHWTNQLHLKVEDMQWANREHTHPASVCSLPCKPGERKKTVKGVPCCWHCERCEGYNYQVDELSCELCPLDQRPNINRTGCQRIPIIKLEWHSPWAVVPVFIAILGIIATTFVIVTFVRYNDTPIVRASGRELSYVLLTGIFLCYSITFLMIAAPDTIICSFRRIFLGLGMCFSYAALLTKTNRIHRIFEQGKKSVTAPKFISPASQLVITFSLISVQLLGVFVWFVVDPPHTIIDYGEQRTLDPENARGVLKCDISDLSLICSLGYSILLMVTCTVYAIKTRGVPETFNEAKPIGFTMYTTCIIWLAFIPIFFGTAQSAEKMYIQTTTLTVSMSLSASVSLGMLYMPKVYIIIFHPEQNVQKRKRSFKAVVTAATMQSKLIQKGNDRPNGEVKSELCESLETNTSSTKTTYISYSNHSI

Row | SMILES | z-score
1 | OCCN(Cc1ccccc1)Cc1cccc(C(F)(F)F)c1 | 0.4
2 | CCOC(=O)c1ccc(NC(=S)N2CCSC2c2ccc(Br)cc2)cc1 (configuration not stated) | 0.308
3 | Cc1ccc(NC(=O)N/C=C/c2ccco2)cc1C | -0.78
4 | COc1ccc(-c2nc(SC)n(S(=O)(=O)c3ccccc3)n2)cc1 | -0.162
5 | Cc1nc2ccccc2cc1OCc1ccc(F)cc1 | -0.0149
6 | Cc1cc(C)n2nc(SCC(=O)c3ccccc3)nc2n1 | -1.75
7 | Cc1ccc(NC(=O)c2ccccc2)cc1OC(=O)c1ccccc1 | -0.219
8 | Cn1ncc2c(N3CCOCC3)ncnc21 | -0.172
9 | Cc1ccc(S(=O)(=O)N=Nc2c(O)[nH]c3ccccc23)cc1 | 0.0879
10 | COc1ccc(-c2csc(N3CCC(C(N)=O)(N4CCCCC4)CC3)n2)cc1 | 0.829
11 | CCN(CC)Cc1cc(C(C)=O)ccc1O | 0.0348
12 | CCCCSc1cc(=O)n(-c2ccccc2)nc1C(=O)OCC | -0.331
13 | Cc1cc(S(=O)(=O)N2CCN(c3ccc(F)cc3)CC2)c(C)s1 | -0.128
14 | C=CCOc1ccc(C2C(C(=O)c3ccco3)=C(O)C(=O)N2Cc2cccnc2)cc1 (configuration not stated) | 0.0252
15 | O=C(Nc1cccc2c1CCCC2)c1cc([N+](=O)[O-])ccc1Cl | -0.115
16 | CC(C)CN(C(=O)CN1CCN(c2ccccc2O)CC1)c1c(N)n(CC(C)C)c(=O)[nH]c1=O | -0.136

Row | SMILES | z-score
17 | OC(COc1ccc2c(c1)OCO2)CN1CCc2ccccc2C1 (configuration not stated) | -1.14
18 | CCCC(=O)Nc1cc(S(=O)(=O)N(CC)CC)ccc1Cl | -0.29
19 | COCCNC(=O)c1ccc2c(=O)n(CCOC)c(=O)[nH]c2c1 | -0.446
20 | Cc1ccc(C)n1NC(=O)c1ccccc1Cl | 0.093
21 | Cc1nn(C(=O)c2ccccc2)c2c1C(=O)CC(C)(C)C2 | 2.47
22 | CCOc1ccc(C(=O)NCC2OCCc3ccccc32)cc1 (configuration not stated) | 0.111
23 | COc1cccc(CC(=S)N2CCOCC2)c1 | -0.198
24 | CCOc1cc(C2NC(=O)NC(C)=C2C(=O)NCc2ccccc2)c(Cl)cc1O (configuration not stated) | -0.854
25 | Cc1ccccc1CN1CCN(S(C)(=O)=O)CC1 | 0.559
26 | CC(C)Oc1ccc(-c2cc(C(=O)NCCN3CCOCC3)c3ccccc3n2)cc1 | -1.1
27 | Cc1ccc(-c2noc(CCCc3ccccc3)n2)cc1 | -0.389
28 | CC(C)(C)C1CCc2c(sc(NC(=O)c3ccco3)c2C(N)=O)C1 (configuration not stated) | 0.458
29 | Cc1cccc(N2CCN(C(=O)Cn3ccc4ccccc4c3=O)CC2)c1C | -0.483
30 | COC(=O)c1sc(S(=O)(=O)N2CCC(C(=O)O)CC2)c(C(=O)OC)c1C | -0.11
31 | CC(=O)C1=C(C)Nc2ncnn2C1c1ccc(Cl)cc1 (configuration not stated) | 0.0506
32 | COc1ccc(CN2C(=O)[C@@H]3C(c4ccc(F)cc4)=NO[C@@H]3C2=O)cc1 | 0.0203
